Source: the supplement of paper PMC10369915
The list shows a part of the results. Cut-off read from the data, not from the text of the source: active = 3.2 or more and inactive = the rest. Most of these values are background signal.

Experiments:
Assay in all cases: enrichment score (SH2-bound / input frequency) (ratio); bacterial display of known human phosphotyrosine sites (pTyr-Var adds point mutants) read by sequencing; higher = stronger binding; tyrosines were phosphorylated by kinases first
Conditions in all cases: peptide library: pTyr-Var
[1] = molecular target: SHP2 C-SH2 domain E139D
[2] = molecular target: SHP2 C-SH2 domain wild-type
[3] = molecular target: SHP2 N-SH2 domain L43F
[4] = molecular target: SHP2 N-SH2 domain T42A
[5] = molecular target: SHP2 N-SH2 domain T52S
[6] = molecular target: SHP2 N-SH2 domain wild-type

Measured: enrichment score
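Note: displayed peptides selected on beads carrying the immobilized SH2 domain, with library peptides lacking any tyrosine serving as negative controls.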

RLLRGYDQFAY [HLA-C_Y137_S140F]
inactive: [1] 1.36 | [2] 1.3 | [3] 1.27 | [4] 0.989 | [5] 1.04 | [6] 1.24

RLLRGYDQYAY [HLA-B_Y137_H137Y]
inactive: [1] 1.23 | [2] 1.07 | [3] 1.1 | [4] 0.841 | [5] 1.14 | [6] 1.17

FSEVRYMKEPF [HIPK4_Y170_V171M_YF]
inactive: [1] 1.05 | [2] 0.714 | [3] 0.666 | [4] 1.02 | [5] 0.828 | [6] 1.03

VDGSLYETHPQ [HK1_Y417_K418E]
inactive: [1] 0.626 | [2] 0.505 | [3] 0.701 | [4] 0.497 | [5] 0.675 | [6] 0.844

RFLRGYRQFAF [HLA-A_Y137_D140Y_YF]
inactive: [1] 0.26 | [2] 0.33 | [3] 0.286 | [4] 0.238 | [5] 0.295 | [6] 0.314

TLQSMYGCDLG [HLA-B_Y123_V127L]
inactive: [1] 0.981 | [2] 0.96 | [3] 0.982 | [4] 0.829 | [5] 0.819 | [6] 1.14

RFLRGYRQHAF [HLA-A_Y137_D140H_YF]
inactive: [1] 0.2 | [2] 0.226 | [3] 0.286 | [4] 0.194 | [5] 0.176 | [6] 0.309

FSEVRYMKEPY [HIPK4_Y170_V171M]
inactive: [1] 0.932 | [2] 0.957 | [3] 0.827 | [4] 0.854 | [5] 0.99 | [6] 1.03

TLQRMYGCDVG [HLA-B_Y123_S121R]
inactive: [1] 0.791 | [2] 0.779 | [3] 0.944 | [4] 0.891 | [5] 0.838 | [6] 1.11

QEGPEYWDEET [HLA-A_Y83_Q86E]
inactive: [1] 0.441 | [2] 0.588 | [3] 0.368 | [4] 0.437 | [5] 0.357 | [6] 0.707

RGFRQYAFDGK [HLA-A_Y140_D140Y_YF]
inactive: [1] 0.558 | [2] 0.399 | [3] 0.294 | [4] 0.375 | [5] 0.372 | [6] 0.402

TIQRMYGCDVG [HLA-A_Y123_I121R]
inactive: [1] 0.621 | [2] 0.8 | [3] 0.679 | [4] 0.876 | [5] 0.519 | [6] 0.836

TLQSMYGCDMG [HLA-B_Y123_V127M]
inactive: [1] 0.717 | [2] 0.859 | [3] 1.08 | [4] 0.839 | [5] 0.891 | [6] 1.14

TIQIMYGCDVG [HLA-A_Y123]
inactive: [1] 1.09 | [2] 1.3 | [3] 1.31 | [4] 1.05 | [5] 1.03 | [6] 1.62

TIQMMYGCDVG [HLA-A_Y123_I121M]
inactive: [1] 1.03 | [2] 1.05 | [3] 0.921 | [4] 0.744 | [5] 0.807 | [6] 1.17

QLHRKYCLSPR [HJURP_Y445_E444K]
inactive: [1] 0.62 | [2] 0.71 | [3] 0.714 | [4] 0.691 | [5] 0.608 | [6] 0.689

TIQIMFGCDVG [HLA-A_Y123_Y123F]
inactive: [1] 1.64 | [2] 1.99 | [3] 1.66 | [4] 1.37 | [5] 1.36 | [6] 2.11

GLNKDYRMVVN [HINT1_Y94_G93D]
inactive: [1] 0.679 | [2] 0.812 | [3] 0.715 | [4] 0.586 | [5] 0.56 | [6] 0.746

VDGSLYKTHPQ [HK1_Y417]
inactive: [1] 0.563 | [2] 0.549 | [3] 0.607 | [4] 0.557 | [5] 0.466 | [6] 0.664
